Results: the supplement of paper PMC12645437, “Orthogonal IMiD-Degron Pairs Induce Selective Protein Degradation in Cells” (ACS Chemical Biology, 2025)
The list shows a part of the results.

B1: Q9UKT9 (peptide)
chain: FDCSVCGHIFTQKGNLLRHIKL
B2: Q9UKT9 (peptide)
chain: LACEICGFICTQKGNLLRHIKL
B3: Q9UKT9 (peptide)
chain: FNCDQCGAKFTQKGNLLRHIKL
B4: Q9UKT9 (peptide)
chain: LRCPICGFCCTQKGNLLRHIKL
B5: Q9UKT9 (peptide)
chain: FTCPVCGAIFTQKGNLLRHIKL
B6: Q9UKT9 (peptide)
chain: FCCNICGAYFTQKGNLLRHIKL
B7: Q9UKT9 (peptide)
chain: LCCEICGFSCTQKGNLLRHIKL
B8: Q9UKT9 (peptide)
chain: FCCNICGAAFTQKGNLLRHIKL
B9: Q9UKT9 (peptide)
chain: FDCDQCGAEFTQKGNLLRHIKL
B10: Q9UKT9 (peptide)
chain: FFCPICGAKFTQKGNLLRHIKL
B11: Q9UKT9 (peptide)
chain: FACDVCGAMFTQKGNLLRHIKL
B12: Q9UKT9 (peptide)
chain: FECNICGAKFTQKGNLLRHIKL
B13: Q9UKT9 (peptide)
chain: FCCNQCGRPFTQKGNLLRHIKL
B14: Q9UKT9 (peptide)
chain: FICPICGRQFTQKGNLLRHIKL
B15: Q9UKT9 (peptide)
chain: FCCPICGAQFTQKGNLLRHIKL
B16: Q9UKT9 (peptide)
chain: FFCNQCGANFTQKGNLLRHIKL
B17: Q9UKT9 (peptide)
chain: FACEQCGAGFTQKGNLLRHIKL
B18: Q9UKT9 (peptide)
chain: FICDQCGATFTQKGNLLRHIKL
B19: Q9UKT9 (peptide)
chain: FACEQCGAYFTQKGNLLRHIKL
B20: Q9UKT9 (peptide)
chain: FGCPVCGAPFTQKGNLLRHIKL
B21: Q9UKT9 (peptide)
chain: FICEICGRYFTQKGNLLRHIKL
B22: Q9UKT9 (peptide)
chain: FECEICGHHFTQKGNLLRHIKL
B23: Q9UKT9 (peptide)
chain: LECEICGFDCTQKGNLLRHIKL
B24: Q9UKT9 (peptide)
chain: FACDICGARFTQKGNLLRHIKL
B25: Q9UKT9 (peptide)
chain: FDCEICGRFFTQKGNLLRHIKL
B26: Q9UKT9 (peptide)
chain: FDCPICGHCFTQKGNLLRHIKL
B27: Q9UKT9 (peptide)
chain: FGCPQCGADFTQKGNLLRHIKL
B28: Q9UKT9 (peptide)
chain: FDCSVCGHHFTQKGNLLRHIKL
B29: Q9UKT9 (peptide)
chain: LWCPICGFFCTQKGNLLRHIKL
B30: Q9UKT9 (peptide)
chain: LFCEICGFICTQKGNLLRHIKL
B31: Q9UKT9 (peptide)
chain: LVCNQCGFFCTQKGNLLRHIKL
B32: Q9UKT9 (peptide)
chain: FRCEVCGASFTQKGNLLRHIKL

Target: no compound (DMSO)
Assay: log2 fold change of degron read counts, EGFP-low vs EGFP+ sorted cells; higher = lower degron-EGFP level without compound (poor expression or instability)
Conditions: compound: DMSO control; 18 h
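Note: jurkat cells carrying a lentiviral library of mutant zinc finger degrons fused to EGFP plus mCherry, mCherry+ cells FACS sorted, degron abundance counted by next-generation sequencing.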

| Sequence | log2 fold change of degron read counts |
| --- | --- |
| B1 | 1.21 |
| B2 | 0.44 |
| B3 | -1.83 |
| B4 | 1.09 |
| B5 | -0.157 |
| B6 | 0.748 |
| B7 | -0.513 |
| B8 | -0.642 |
| B9 | -1.39 |
| B10 | 0.0537 |
| B11 | -1.49 |
| B12 | -1.88 |
| B13 | 0.271 |
| B14 | -0.466 |
| B15 | 0.436 |
| B16 | 0.147 |

| Sequence | log2 fold change of degron read counts |
| --- | --- |
| B17 | -3.27 |
| B18 | -2.05 |
| B19 | -1.24 |
| B20 | 0.129 |
| B21 | -0.377 |
| B22 | -1.88 |
| B23 | -1.93 |
| B24 | -0.632 |
| B25 | 0.858 |
| B26 | -0.563 |
| B27 | -1.34 |
| B28 | -0.274 |
| B29 | 3.79 |
| B30 | 2.17 |
| B31 | 1.92 |
| B32 | -1.53 |
